B1: OR4K15 (parent)
chain: GUUAACGGUCAUAGGCCAUGGAAACUAGGAGCACCAUUUCGCUGCCAGUGAAGAAAUGAACAAAGAAAAUCUGGGCCAGGCAGGCAUCAAAAGAAAUAGUCUUGCGCUCAACCAGAAAGUCUGUAAUCAUUUUAAGGGUA

The source gives no read counts; variants with many changes may rest on few reads.

Variants of B1 are the subject of the data set. Kind of data set: self-cleavage, relative activity (ratio to wild type); higher = more cleavage; in vitro, sequencing; the parent is a self-cleaving ribozyme.
For the variant C45G A66C A86G A94G, the self-cleavage is 1.49.
With U49C A60U U72C U103A A117G the figure was 0.1; with U49A A114G U124C, 0.4; with A47G A59G A78G A94G, 0.14.
The result for U43C U72A U120G reads 0.35; that for U43C U49C U72C A111G, 0.02; that for A47U U70A U72C U103A, 0.04.
The result for U43C U72C A94G U108C reads 0.01; that for C46U A47G A90G U102C A116G, 1.16; that for U49C U72A U127C A129G, 0.02.
Turning to G50A A59G A64C, the self-cleavage was determined as 1.48.
Consider U49C A62G A114U, for which the self-cleavage stood at 0.08.
U49A A55G A96G: the self-cleavage was determined as 1.28.
The result for A47G A59G U133C reads 0.77; that for U49A A51G A66U, 0.48; that for A47U A111U U127C, 0.03.
With A47U U57C A68G A135G the figure was 0.19; with U43C U97C A116G, 0.77.
With A47G U49A A111G the figure was 0.05.
Turning to U49C A52G A111G, the self-cleavage is 0.01.
With G48A A68G U70C the figure was 0.94.
Regarding U43C U102C A125G, the self-cleavage is 1.45.
The result for G50A A59G A62G reads 0.96; that for A47U U100C U122C, 1.87; that for A47U U57C A135G, 0.53.
On to A47C U97C U108A, for which the self-cleavage was 0.01.
With U49A A51U A89G U100C the figure was 1.76; with C45U A116G U132C, 0.12; with U49A A54G C101U, 0.03.
The result for G48A A62C U122C U127C reads 0.79.
A47G A96G U127A U130C: the self-cleavage is 1.15.
With A47G A52G A63G U103A G138A U139G A140G the figure was 0.48.
As to A47G U120A U130C, the self-cleavage was 0.21.
With U43C C71U A86G A126G, the self-cleavage worked out at 0.17.
Consider U49A U87C U100A, for which the self-cleavage came to 0.3.
With U49C A90G U97C A98U A126G the figure was 0.11; with A47U A129G U132C, 0.35; with U43C U103C A114G, 0.25.
As for U49C A69G A116G, the self-cleavage was 0.47.
The result for U43C U49A A55U A56G A95G U100C reads 1.35; that for U49C U108C A126G, 0; that for U49C A52G G106U, 0.
With A47G A89U A118G U130C the figure was 0.43.
With G50U A62G A69U A89G U122C the figure was 1.98.
As to A47G U72A A118U, the self-cleavage was found to be 0.08.
The result for U49G A54G A68G C88U A95G A126U reads 1.2; that for A47G U131C U132C, 0.59; that for U49C A69G G123A, 1.73.
With A47U U57G A91C the figure was 0.44; with C45U A51G A59U A66U U130C, 1.77; with A47U A62G G74U U122G, 0.24.
The result for U49A A94G A96G U130C reads 0.51; that for U49C G73A U103C A114G, 0.01.
Regarding U49C A69C A82G A92G, the self-cleavage turned out to be 0.27.
The result for U49C A51G U120A reads 1.44; that for A47U A52U A60G A114U A126G, 0.01; that for U49C A68U U87C U122G C128U U133C, 2.26.
The result for U49C A55G A60G U108C reads 0.03; that for U49A A52G A111G, 0.01; that for U49C A56G A95G, 2.6.
The result for A47U U87C A118G U127C reads 0.11; that for C46U A66G A82G, 0.58; that for U49C A66G A67G C109U A118G, 0.13.
U49C A129C A134U: the self-cleavage worked out at 0.33.
In the case of U43C U100C U124C U127C, the self-cleavage is 0.99.
The result for A47G A94G U102C U127C reads 2.5; that for A47U A66G U72A A126G A134G, 0.19; that for A47G A89U U131C, 0.93.
With U43C U102A U103A the figure was 0.12.
In the case of U49C A95G A116G, the self-cleavage turned out to be 1.16.
The result for U49C A66G A91G reads 1.03.
The result for A47C U49C A90G A94G C105A reads 0.01; that for A47G A67G A117G, 1.8; that for U49C A59G A68G A82C A110C, 0.01.
Turning to C46A A52G A89U, the self-cleavage came out at 1.02.
With A47U A51C A62G A95G the figure was 0.75; with A47G G83U U120C U122C, 0.16.
The result for A47C A54G A117G reads 2.72; that for A47G A52G A64G U103C A110G A125G A129G, 0.
Turning to A47U A82G A90U, the self-cleavage was determined as 0.47.
The result for A47C A62U U102C U130C reads 1.17.
The result for U49C A59G A62C A129U reads 0.46.
The result for U49G A62G A91U reads 0.82; that for A47U A54C A90G, 0.41; that for U49C A54U U72C A78G, 0.
Turning to G44C A56G U70C A126U, the self-cleavage came to 0.43.
The result for U49A A67G G74A A96G G106C U131C A134G reads 0.01; that for U49C A60G U127C, 0.53; that for U43C U102A A114G, 0.16.
The result for A47G A52G U72C reads 0.26; that for U43G G44U A118G, 1.17.
With A47G U49A A117G U122A A125G U130A the figure was 0.12; with C46U A78C A90G A91G A116G, 0.11.
As for A47U A51U A69G, the self-cleavage was determined as 0.51.
The result for U49C U57C A63G A94G reads 0.99.
The result for A47G A56G U127C U139C reads 0.71; that for U49C A56G A91U, 0.75.
The result for A47C A60G A114U U124C reads 0.03.
U49A A54G G74A: the self-cleavage amounted to 0.19.
With A47C A64G A69G U108A the figure was 0.01.
The result for A47U A60G A94G reads 0.9; that for U49C A62G A94G U97C, 1.07.
The result for A47G U57C U100C reads 1.26; that for A47U A64G A114G A129G, 0.04; that for U43G U108C U122A, 0.01.
Regarding U43C G84C A114U, the self-cleavage was 0.01.
The result for U49A A92U U97C reads 0.3; that for U43G U49C A54G A59G U87C U100C, 1.42; that for U49C A54G U102C U127C, 1.72.
The result for A47G G74A A117G reads 0.13; that for G48U A86U A118G, 1.86; that for U49C A89G U108C, 0.01.
Turning to A47G U87C U108C, the self-cleavage was 0.01.
With U49A A51G U72C A95G the figure was 0.66.
As for C45U A52U U72C U87C, the self-cleavage stood at 0.97.
With U49C U57A U87C A114G the figure was 0.03; with U43C C81G U103A A114U, 0.02; with C45U A63G U131C, 1.27.
With U49C U120G A126U the figure was 0.9.
The result for U49G A67G A92G reads 1.14; that for G48A A62G A66G A82U, 0.24; that for U43C C45U A60G, 1.15.
For the variant U49A U57A C61U A68G U108C U127C, the self-cleavage amounted to 0.01.
With A47G A56G A59G the figure was 0.88; with G44U A64U A118G A126G, 1.
Take U49A A68U A96G A110G: the self-cleavage is 0.12.
For G50C A64G G83A U131C, the self-cleavage turned out to be 2.28.
With A47G U87C A111G U122C the figure was 0.01; with U49C U108C U132C, 0.01; with A47G A86C U130G, 0.45.
Regarding A47U U72C C81U, the self-cleavage stood at 0.23.
As for U49C A78G A117G U120A, the self-cleavage worked out at 0.23.
With C45U U87A U102C the figure was 1.97; with U49C A95G A118G A129G, 0.62.
With A47G A59G G75A A90G A116G U120A the figure was 0.02; with A47G U100C U103C A111G, 0.
With A47G A55G A78U the figure was 0.25; with U49C U87C A114C, 0.02; with A47G A67G U122C A135G, 0.51.
Turning to C45U A59U U120C, the self-cleavage was 0.65.
The result for A47G A92G A98G U132C reads 0.45; that for U49C A51U U130C, 1.06.
With U49C A86U U102C the figure was 1.39; with U49C U108C A111U, 0.
For the variant C46A A47C A62G A67G U103C, the self-cleavage stood at 0.26.
The result for A47G A60G A78G A89G U122A reads 0.09; that for G44A U72C A89G, 0.3; that for U49A A59G A111U, 0.07.
With A47U A68G A110G the figure was 0.1; with U49C A69U A82U A126G, 0.04; with U49C A86G A116G A126U A140G, 0.56.
With G50A A114G U122A the figure was 0.32; with U49C U57C A62G A68G, 1.11; with G44A U57C C61U U87C A95G A116G, 0.2.
Regarding G50U A62G A129G, the self-cleavage is 1.03.
The result for U43C C71A U130C reads 0.16; that for U49C C71U U87A, 0.22.
The result for A47U A60G A69U reads 1.15; that for U43G A63U A78U, 0.73; that for U43C U57C A94G A95G U103G, 0.02.
The result for U43C U87C C113U A125G reads 0.
As to G50A U87C A94G C113U, the self-cleavage came to 0.1.
Consider U49C A54G A111G U132C, for which the self-cleavage was determined as 0.02.
With A47G A68G U130C, the self-cleavage is 0.52.
The result for A47U U57C G138A reads 0.3; that for U43G U57C A98U, 1.4.
The result for A47G A56G A94G reads 0.86.
